The record followed here is patent US20230235005A1 (INHIBRX, published 2023).

The test concerns the target T1, Histidine-tagged CD25 (UniProt P01589 22-217, limits assumed).
T1 construct: Immobilized in Biolayer Interferometry (ForteBio); not shown: histidine tag
T1 sequence (looked up): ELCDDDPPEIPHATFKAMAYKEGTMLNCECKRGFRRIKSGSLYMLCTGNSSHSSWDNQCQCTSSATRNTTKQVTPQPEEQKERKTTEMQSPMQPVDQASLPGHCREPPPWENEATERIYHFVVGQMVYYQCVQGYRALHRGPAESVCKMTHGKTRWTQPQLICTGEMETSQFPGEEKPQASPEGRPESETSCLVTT
The experiment in a line: Biolayer Interferometry (ForteBio), immobilized His-tagged CD25. How it is done:
Polypeptides comprising a modified IL-2 fused to the C-terminus of a PD-1 binding VHH and control polypeptides were tested for binding to CD25 using Biolayer Interferometry (ForteBio).

B1: WT IL-15 (control polypeptide of Example 24) (ligand)
chain: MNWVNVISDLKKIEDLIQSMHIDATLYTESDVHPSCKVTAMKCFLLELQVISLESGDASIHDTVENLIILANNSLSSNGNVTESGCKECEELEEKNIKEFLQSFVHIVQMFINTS
notes: also called IL-15 WT
Regarding B1, the binding result was “no binding (tested: 300 nM)”.
